Consider 14 compounds from paper PMC11995724, “Antibiotic target discovery by integrated phenotypic and activity-based profiling of electrophilic fragments” (Cell chemical biology, 2025).

The structures appear in SMILES notation. Hit rate of the full screen: of about 3,200 compounds, about 75 (2%) showed an effect of 50% or more. The list shows a part of the results.

The test system of this assay is T1, S. aureus MSSA476.
T1 construct: MSSA476
On the set-up: species or system S. aureus MSSA476 (TSB) or V. cholerae SAD30 (LB); 384-well bacterial growth screen at 25 uM, OD600 relative to DMSO control. Conditions: relative growth, OD600, TSB; 25 µM; inhibitor.
Consider `Cc1ccc(C(=O)CN(C(=O)CCl)c2ccccc2)cc1` [4-B13, 2-chloro-N-[2-(4-methylphenyl)-2-oxoethyl]-N-phenylacetamide], for which the “% of control remaining” value stood at 140.638%. Under `CN1C(=O)C(=C(C#N)C(=O)NCc2ccc(Cl)cc2)c2ccccc21` [8-K17, N-[(4-chlorophenyl)methyl]-2-cyano-2-(1-methyl-2-oxo-2,3-dihydro-1H-indol-3-ylidene)acetamide] stands 101.577%. As to `C=CC(=O)NCC(=O)N1CCCO1` [1-H05, N-[2-(1,2-oxazolidin-2-yl)-2-oxoethyl]prop-2-enamide], the “% of control remaining” value amounted to 95.6484%. The figure for `CCN(CC)C(=O)c1ccc(NC(=O)CCl)cc1` [4-C05, 4-(2-chloroacetamido)-N,N-diethylbenzamide] is 84.9929%; for `N#CC(=Cc1ccc2c(c1)OCCO2)C(=O)NCc1ccccc1` [8-H03, N-benzyl-2-cyano-3-(2,3-dihydro-1,4-benzodioxin-6-yl)prop-2-enamide] it is 96.9295%. Under `O=C(CCl)Nc1cc(C(F)(F)F)ccc1Cl` [4-J04, 2-chloro-N-[2-chloro-5-(trifluoromethyl)phenyl]acetamide] stands 129.967%.

In the case of `CC(Cl)C(=O)NC1CCCCC1` (centres unmarked) [4-O06, 2-chloro-N-cyclohexylpropanamide], the “% of control remaining” value amounted to 79.2758%. As for `COc1cccc(N2C(=O)C=CC2=O)c1` [10-K03, 1-(3-methoxyphenyl)-2,5-dihydro-1H-pyrrole-2,5-dione], the “% of control remaining” value amounted to 124.375%.

As for `C=CC(=O)N(C)Cc1ccn(CC)n1` [1-L16, N-[(1-ethyl-1H-pyrazol-3-yl)methyl]-N-methylprop-2-enamide], the “% of control remaining” value is 121.319%. Under `Cc1cc(NS(=O)(=O)c2ccc(NC(=O)CCl)cc2)nc(C)n1` [5-I09, 2-chloro-N-{4-[(2,6-dimethylpyrimidin-4-yl)sulfamoyl]phenyl}acetamide] stands 100.182%. `Cc1noc(C)c1CN(C)C(=O)CCl` [5-G06, 2-chloro-N-[(3,5-dimethyl-1,2-oxazol-4-yl)methyl]-N-methylacetamide]: the “% of control remaining” value stood at 96.5392%. The figure for `CC(C)c1ccc(CC(=O)CCl)cc1` [10-I17, 1-chloro-3-[4-(propan-2-yl)phenyl]propan-2-one] is 109.375%; for `C=CC(=O)N(C)C[C@@H]1CCC(=O)N1` [3-A22, N-methyl-N-{[(2S)-5-oxopyrrolidin-2-yl]methyl}prop-2-enamide] it is 138.964%; for `C=CC(=O)NC(c1nc(C)cs1)C(F)(F)F` (centres unmarked) [2-I17, N-[2,2,2-trifluoro-1-(4-methyl-1,3-thiazol-2-yl)ethyl]prop-2-enamide] it is 113.838%.
